Data published in the supplement of paper PMC7125110.
± gives the standard error. This sample is rich in variants without activity.

B1: glmS ribozyme (parent)
chain: AUAAAAGCGCCAGAACUACAGAAAUGUAGUUGACGAGGAGGAGGUUUAUCGAAUUUUCGGCGGAUGCCUCCAAA

Variants of: B1
Assay: self-cleavage kobs at 160 uM GlcN6P; higher = faster cleavage; RNA array
Settings: with glucosamine-6-phosphate
Summary of the method: (§1)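 Barcoded ribozyme variants, transcribed in situ by E. coli RNA polymerase on sequenced MiSeq chips, were followed via a hybridised Cy3 probe at 37 °C. Glucosamine-6-phosphate ranged from 40 μM to 10 mM in HEPES/KCl/Mg(OAc)2 buffer. kobs came from decay fits to per-tile medians, and kcat and KM from weighted Michaelis–Menten fits.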

Variant | self-cleavage kobs at 160 uM GlcN6P
AUAAAAGCGUCUGGACUACAGAAAUGUAGUUGACGAGGAGUAGGUUUAUCGAAUUUUCGGCGGAUGCCUCCAAA | < 1e-05 s⁻¹
AUAAAAGCGUCAGAUCUACAGAAAUGUAGUUGACGAGGAGGAAGUUUAUCGAGUUUUCGGCGGAUGCCUCCAAA | < 1e-05 s⁻¹
AUAAAAGCGUCAGAACUACAGAAAUGUAGUUGACGAGGAGGAGGUUUAUCAAAUCUUCGGCGGAUGCCUCCAAA | < 1e-05 s⁻¹
AUAAAAGCGCACGAACUACAGAAAUGUAGUUGACGAGGAGGAGGUUUAUCGAAUUUUCGGUGGAUGCCUCCAAA | < 1e-05 s⁻¹
AUAAAAGCGCAAGCACUACAGAAAUGUAGUUGACGAGGAGGAGGUUUAUCGAAUUUUCGGCGGAUGCCUCCAAA | < 1e-05 s⁻¹
AUAAAAGCGCAAGAACUACAGAAAUGUAGUUGACGAGGAGGAGGUUUAUCGUAAUUUAUGCGCAUGCCUCCAAA | < 1e-05 s⁻¹
AUAAAAGCGCAAGAACUACAGAAAUGUAGUCGACGAGGAGGAGGUUUAUCGAAUUUACGGCGGAUGCCUCCAAA | < 1e-05 s⁻¹
AUAAAAGCGCAAGAACUACAGAAAUGUAGUUGACGAGGAGGAGGUUUAUCGAAUUGUUGGCGGAUGCCUCCAAA | < 1e-05 s⁻¹
AUAAAAGCGCGAGGACUACAGAAAUGUAAUUGACGAGGAGGAGGUUUAUCGAAUUUUCGGCGGAUGCCUCCAAA | < 1e-05 s⁻¹
AUAAAAGCGCGAGAACUACAGAAAUGUAGUUGACGAGGAGGAGGUUUAUCGAGUUUUCGGCGGAUGCCUCCAAA | < 1e-05 s⁻¹
AUAAAAGCGCUCGAACUACAGAAAUGUAGUUGACGAGGAGGACGUUUAUCGAAUUUUCGGCGGAUGCCUCCAAA | < 1e-05 s⁻¹
AUAAAAGCGCUAGAACUACAGAAAUGUAGUUUACGAGGAGGAGAUUUAUCGUAUUUUCGUCGGAUGCCUCCAAA | < 1e-05 s⁻¹
AUAAAAGCGCCGGAACUACAGAAAUGUAGUUGACGAGGAGGAGGUUUAUCGAUUUUUCGGCGCAUGCCUCCAAA | < 1e-05 s⁻¹
AUAAAAGCGCCGGAACUACAGAAAUGUAGUUGACUAGGAGGAGGUUUAUCGAUUUUUCGGCGGAUGCCUCCAAA | < 1e-05 s⁻¹
AUAAAAGCGCCUGAACUACAGAAAUGUAAUUGACGAGGAGAAGGUUUAUCGAAUUUUUGGCGGAUGCCUCCAAA | < 1e-05 s⁻¹
AUAAAAGCGCCUGAACUACAGAAAUGUAGUUGACGAGGAGGAGGCUUAUCGAGUUUGCGGCGGAUGCCUCCAAA | < 1e-05 s⁻¹
AUAAAAGCGCCAAAACUACAGAAAUGUAGUUGACGAGGAGGAGGUUUAUCGAAUUUUGUGCGGAUGCCUCCAAA | < 1e-05 s⁻¹
AUAAAAGCGCCACUACUACAGAAAUGUAGUUAACGAGGAGGAGGUUUAUCGAAUUUUCGGCGGAUGCCUCCAAA | 0.000741 ± 0.00017 s⁻¹
AUAAAAGCGCCACAACUACAGAAAUGUAGUUGACGAGGAGGAGGUUUAUCGAAUUUUGGGCGGAUGCCUCCAAA | < 1e-05 s⁻¹
AUAAAAGCGCCACAACUACAGAAAUGUAGUUGACGAGGAGGAGGUUUAUCGAAUUUUCGGCGGAUUCCUCCAAA | < 1e-05 s⁻¹
AUAAAAGCGCCAGCACUACAGAAAUGUAGUUGACGUGCGGGAGGUUUAUCGAAUUUUCGGCGGAUGCCUCCAAA | < 1e-05 s⁻¹
AUAAAAGCGCCAGCACUACAGAAAUGUAGUUGACGAGGAGGAGGUUUAUCGAAUUUUCGGCGUAUGCCUCCAAA | < 1e-05 s⁻¹
AUAAAAGCGCCAGGACUACAGAAAUGUAGUUGACGAGGAGGAGGUUUAUCGCAUUUACGGCGGAUGCCUCGAAA | < 1e-05 s⁻¹
AUAAAAGCGCCAGUACUACAGAAAUGUAGUUGACGAGGAGGAGGUUUAGCGAUUUUUCGGCGGAUGCCGCCAAA | 8.99e-05 ± 3.4e-05 s⁻¹
AUAAAAGCGCCAGAGUUACAGAAAUGUAGUUGUCGAGGGGGAGGUUUAUCGAAUUUUCGGCGGAUGCCUCCAAA | < 1e-05 s⁻¹

Variants of: B1
Assay: self-cleavage kobs at 2500 uM GlcN6P; higher = faster cleavage; RNA array
Settings: with glucosamine-6-phosphate
Summary of the method: as §1

Variant | self-cleavage kobs at 2500 uM GlcN6P
AUAAAAGCGUCAGAUCUACAGAAAUGUAGUUGACGAGGAGGAAGUUUAUCGAGUUUUCGGCGGAUGCCUCCAAA | < 1e-05 s⁻¹
AUAAAAGCGUCAGAACUACAGAAAUGUAGUUGACGAGGAGGAGGUUUAUCAAAUCUUCGGCGGAUGCCUCCAAA | < 1e-05 s⁻¹
AUAAAAGCGCAAGCACUACAGAAAUGUAGUUGACGAGGAGGAGGUUUAUCGAAUUUUCGGCGGAUGCCUCCAAA | 3.05e-05 ± 1.3e-05 s⁻¹
AUAAAAGCGCAAGAACUACAGAAAUGUAGUUGACGAGGAGGAGGUUUAUCGUAAUUUAUGCGCAUGCCUCCAAA | < 1e-05 s⁻¹
AUAAAAGCGCUCGAACUACAGAAAUGUAGUUGACGAGGAGGACGUUUAUCGAAUUUUCGGCGGAUGCCUCCAAA | < 1e-05 s⁻¹
AUAAAAGCGCUAGAACUACAGAAAUGUAGUUUACGAGGAGGAGAUUUAUCGUAUUUUCGUCGGAUGCCUCCAAA | < 1e-05 s⁻¹
AUAAAAGCGCCUGAACUACAGAAAUGUAAUUGACGAGGAGAAGGUUUAUCGAAUUUUUGGCGGAUGCCUCCAAA | < 1e-05 s⁻¹
AUAAAAGCGCCAGUACUACAGAAAUGUAGUUGACGAGGAGGAGGUUUAGCGAUUUUUCGGCGGAUGCCGCCAAA | 7.58e-05 ± 2.1e-05 s⁻¹

Variants of: B1
Assay: self-cleavage kobs at 10000 uM GlcN6P; higher = faster cleavage; RNA array
Settings: with glucosamine-6-phosphate
Summary of the method: as §1

Variant | self-cleavage kobs at 10000 uM GlcN6P
AUAAAAGCGCAAGCACUACAGAAAUGUAGUUGACGAGGAGGAGGUUUAUCGAAUUUUCGGCGGAUGCCUCCAAA | 4.9e-05 ± 1.5e-05 s⁻¹
AUAAAAGCGCCGGAACUACAGAAAUGUAGUUGACGAGGAGGAGGUUUAUCGAUUUUUCGGCGCAUGCCUCCAAA | < 1e-05 s⁻¹
AUAAAAGCGCCGGAACUACAGAAAUGUAGUUGACUAGGAGGAGGUUUAUCGAUUUUUCGGCGGAUGCCUCCAAA | < 1e-05 s⁻¹
AUAAAAGCGCCAGCACUACAGAAAUGUAGUUGACGAGGAGGAGGUUUAUCGAAUUUUCGGCGUAUGCCUCCAAA | < 1e-05 s⁻¹
